PubChem BioAssay AID1460 (National Center for Advancing Translational Sciences (NCATS), 2008)
The campaign covered roughly 270,000 compounds. About 5,800 (2.1%) were called active. Inconclusive means that the source gave no clear call. Such entries were picked first, then a sample of the others. The call rests on the fitted dose curve; in most records, active means well fitted inhibition curve with a large enough effect; inconclusive means small, poorly fitted or top-dose-only effect; inactive means flat fitted curve, though single readings scatter. Where the call is inconclusive, the potency comes from a doubtful curve fit.
Further: nearly all actives have a fitted effect of over 55% in size.
On the % scale 0 is the no-effect control and ±100 the full control effect; potency means the concentration at half of the fitted maximal effect; tags describe the fitted curve by direction and shape.

The compounds below were run against Microtubule-associated protein tau (Homo sapiens) (UniProt P10636) (assay: qHTS for Inhibitors of Tau Fibril Formation, Thioflavin T Binding). Conditions: recombinant tau K18 P301L, heparin-induced fibrillization, ThT fluorescence; series mostly up to 57.4 µM; activity, negative = inhibition: at the top concentration.
UniProt P10636, sequence (P10636 whole entry, looked up): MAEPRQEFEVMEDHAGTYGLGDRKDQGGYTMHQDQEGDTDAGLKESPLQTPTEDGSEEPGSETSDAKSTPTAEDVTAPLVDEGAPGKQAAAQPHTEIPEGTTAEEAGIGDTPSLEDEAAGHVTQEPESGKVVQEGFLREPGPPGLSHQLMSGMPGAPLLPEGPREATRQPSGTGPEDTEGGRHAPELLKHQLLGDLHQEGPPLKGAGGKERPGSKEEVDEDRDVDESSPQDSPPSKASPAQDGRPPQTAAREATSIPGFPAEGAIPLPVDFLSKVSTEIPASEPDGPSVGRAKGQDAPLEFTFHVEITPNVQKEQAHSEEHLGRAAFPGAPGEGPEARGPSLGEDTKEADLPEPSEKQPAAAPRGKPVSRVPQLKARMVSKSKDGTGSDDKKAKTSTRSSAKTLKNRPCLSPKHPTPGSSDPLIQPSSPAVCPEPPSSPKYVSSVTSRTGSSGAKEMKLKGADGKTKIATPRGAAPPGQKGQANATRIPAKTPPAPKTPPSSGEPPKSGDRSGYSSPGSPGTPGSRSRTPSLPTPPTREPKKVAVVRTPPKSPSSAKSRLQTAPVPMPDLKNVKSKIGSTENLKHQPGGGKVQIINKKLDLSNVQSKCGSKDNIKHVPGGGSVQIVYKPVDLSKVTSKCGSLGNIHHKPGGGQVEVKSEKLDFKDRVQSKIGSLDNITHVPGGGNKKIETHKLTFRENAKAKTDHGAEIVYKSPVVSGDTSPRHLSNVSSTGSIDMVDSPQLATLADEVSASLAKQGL
Summary of the method: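 Fibril formation assay: tau K18 P301L at 15 uM with trace Alexa 594 label, heparin inducer 20 uM, pH 7 sodium acetate buffer, 37 C for 6 hr; endpoint ThT signal.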
Cc1cc(C)cc(NC(=O)NCC(O)COc2ccc([N+](=O)[O-])cc2)c1 (stereo unspecified) was tested, and the Potency was inconclusive: 10 µM [inhibitor, partial curve]. With COc1ccc(C(=O)OCC(=O)NCc2ccc3c(c2)OCO3)cc1[N+](=O)[O-] the “activity, negative = inhibition” value was inactive: 5.72%. O=C(Nc1ccc(Cl)c(-c2nc3ccccc3o2)c1)c1ccc(-c2cccc([N+](=O)[O-])c2)o1 was tested, and the Potency was inconclusive: 0.0891 µM [inhibitor, full curve]. For COc1ccccc1C(=O)Nc1cc2cc(Br)ccc2oc1=O, the Potency was inconclusive: 0.891 µM [inhibitor, full curve]. Cc1[nH]c2ccccc2c1/C=N/NC(=O)c1cccc(S(=O)(=O)Nc2ccccc2Cl)c1 was tested, and the Potency was inconclusive: 11.2 µM [inhibitor, partial curve]. CCc1nnc(NCC(=O)N2CCc3ccccc32)s1 was tested, and the “activity, negative = inhibition” value was inactive: -13.9%. In the case of CCOc1ccc(NC(=O)Cn2cc(C(=O)c3ccc(OC)cc3)c(=O)c3cc4c(cc32)OCO4)cc1, the Potency is reported as inconclusive: 10 µM [inhibitor, partial curve]. In the case of Cc1cc(Nc2ccccc2C(=O)O)n(-c2ccc([N+](=O)[O-])cc2)n1, the Potency is reported as inconclusive: 8.91 µM [inhibitor, partial curve, poor fit]. Cc1cccc(CCNC(=O)C2CCCN(S(=O)(=O)c3cccc4nsnc34)C2)c1 (stereo unspecified) was tested, and the “activity, negative = inhibition” value was inactive: -5.92%. In the case of O=[N+]([O-])c1ccc(Cl)c(/C=N/N2CCN(Cc3ccc(Cl)cc3)CC2)c1, the “activity, negative = inhibition” value is reported as inactive: -7.29%. O=C1CC(C(=O)Nc2ccc(Cl)cc2[N+](=O)[O-])C2(CCCCC2)O1 (stereo unspecified) was tested, and the “activity, negative = inhibition” value was inactive: -5.97%. For Cc1ccc(N/N=C(/Sc2nnnn2-c2ccccc2)C(=O)c2ccccc2)cc1, the “activity, negative = inhibition” value was inactive: -14%. In the case of CCOc1ccc(NC(=O)CSc2nnc(-c3ccco3)n2C)cc1, the Potency is reported as inconclusive: 12.6 µM [inhibitor, partial curve]. In the case of CC1(C)CC(=O)C=C(NNC(=O)C2CCCCC2)C1, the “activity, negative = inhibition” value is reported as inactive: -8.74%. With NC1=NN=C(c2ccc3c(c2)OCCO3)CS1 the Potency was inconclusive: 12.6 µM [inhibitor, partial curve]. With COc1ccc(/C=C/c2c([N+](=O)[O-])c(=O)n(C)c(=O)n2C)c(OC)c1 the Potency was inconclusive: 3.55 µM [inhibitor, single point]. For C[n+]1c2n(c3ccccc31)N=C(c1ccc(Br)cc1)CS2, the Potency was inconclusive: 35.5 µM [inhibitor, partial curve]. With CC(C)NC(=O)c1cc(-c2ccco2)nn1-c1ccc(Cl)cc1 the Potency was inconclusive: 39.8 µM [inhibitor, partial curve]. With CCCC(C)c1nnc(NC(=O)C2CCCO2)s1 (stereo unspecified) the Potency was inconclusive: 0.0562 µM [activator, full curve, poor fit]. With Nc1c(C(=O)c2ccco2)oc2ccccc12 the Potency was inconclusive: 15.8 µM [inhibitor, partial curve]. With COC(=O)c1ccccc1NC(=O)CCC(=O)N1CC(C)Sc2ccccc21 (stereo unspecified) the “activity, negative = inhibition” value was inactive: -4.21%. With CCOc1ccc(C(=O)Nc2nc(-c3ccc(Br)cc3)ns2)cc1 the Potency was inconclusive: 2.24 µM [inhibitor, partial curve]. With S=C(Nc1ccccn1)Nc1ccccc1Cl the “activity, negative = inhibition” value was inactive: -4.06%. For CC1CCn2c(nc3cc(C(=O)NCCc4ccccc4)ccc32)C1 (stereo unspecified), the Potency was inconclusive: 3.98 µM [inhibitor, partial curve]. COc1ccc(/C=N\NC(=O)c2ccc(=O)[nH]n2)cc1O was tested, and the Potency was inconclusive: 31.6 µM [inhibitor, single point]. For Cc1[nH][nH]c(=O)c1N=Nc1ccccc1, the Potency was inconclusive: 14.1 µM [inhibitor, partial curve]. O=C(O)C(Cc1c[nH]c2ccccc12)N1C(=O)C2C3c4ccccc4C(c4ccccc43)C2C1=O (stereo unspecified) was tested, and the “activity, negative = inhibition” value was inactive: -7.92%. With CCC(C)NCCCOc1ccc(C)cc1OC (stereo unspecified) the “activity, negative = inhibition” value was inactive: 3.3%. In the case of CCS(=O)(=O)C1=NN2C(=N)/C(=C\c3ccc(SCc4ccco4)o3)C(=O)N=C2S1, the Potency is reported as active: 14.1 µM. In the case of CCOc1c(C)cc2[nH]c(CCC(=O)O)nc2c1C, the “activity, negative = inhibition” value is reported as inactive: -22.1%. For Cc1ccc(NC(=O)c2cccc(Cl)c2)nc1, the “activity, negative = inhibition” value was inactive: -0.235%. In the case of Cc1ccc(NN=C2c3ccccc3-c3ccccc32)cc1, the Potency is reported as inconclusive: 7.08 µM [inhibitor, partial curve]. With FC(F)(F)c1ccc(N2CCOCC2)c(Nc2nc3ccccc3n3cnnc23)c1 the Potency was inconclusive: 15.8 µM [inhibitor, partial curve]. With COc1cc(NC(=O)c2ccc3c(c2)OCCO3)ccc1NC(=O)c1ccco1 the Potency was inconclusive: 0.708 µM [inhibitor, full curve]. COc1ccc(CN2CCC(N(CCc3ccccc3)Cc3ccccc3)CC2)c(OC)c1 was tested, and the “activity, negative = inhibition” value was inactive: -10.9%. With CCOC(=O)/C(C#N)=C/c1ccc(-c2ccccc2)o1 the Potency was inconclusive: 7.94 µM [inhibitor, full curve].
